In PubChem BioAssay AID463173 (ICCB-Longwood Screening Facility, Harvard Medical School, 2010):
In all, about 52,000 compounds went through this assay and about 1,700 (3.3%) were called active. Cut-off read from the data, not from the text of the source: active = survival mostly below about 52% (no sharp cut-off); inactive = mostly above about 56%. Some of the results follow.

tested on: Wild type; experiment: S. aureus survival, RN4220 and DeltatarO strains – OD600, teichoic acid synthesis inhibitors, primary screen (AID 463173); details: S. aureus RN4220 wild type/DeltatarO growth, OD600, 18 h, stronger effect = lower value, screened at 18.75 µg/mL (by protocol)

Row | Compound | survival
1 | COc1ccc(CCNC(=O)c2ccc(Cn3c(=O)c4ccccc4n(Cc4cc(C)ccc4C)c3=O)cc2)cc1OC | inactive: 97%
2 | Cc1ccc2oc(=O)c3cc(C(=O)Nc4ccc(F)cc4F)sc3c2c1 | inactive: 80%
3 | Cc1cc(C)c2nc(N3CCCC(C(=O)NCc4cccc(Br)c4)C3)sc2c1 (configuration not stated) | inactive: 70%
4 | Fc1ccc(Nc2nc3ccccc3c3nncn23)c(Cl)c1 | inactive: 96%
5 | CC(C)CSc1nnc(-c2ccccc2)c(-c2ccccc2)n1 | active: -4%
6 | Cc1ccc(NC(=O)c2oc3ccc(S(=O)(=O)N4CCCCCC4)cc3c2C)cc1Cl | inactive: 88%
7 | CCOC(=O)c1ccc(N2CCN(c3ccccc3F)CC2)c(NC(=O)Nc2ccc(Cl)c(Cl)c2)c1 | inactive: 65%
8 | COc1ccc(C)c2sc(N(Cc3cccnc3)C(C)=O)nc12 | inactive: 59%
9 | Cc1ccc(Cl)cc1NC(=O)CN1C(=O)c2cccc3cccc1c23 | inactive: 71%
10 | CCCN1C(=O)c2[nH]nc(-c3ccccc3O)c2C1c1ccc(OCc2ccccc2)c(OCC)c1 (configuration not stated) | inactive: 66%
11 | C=CCNc1nc(-c2ccccc2)cs1 | inactive: 109%
12 | COc1ccc(-c2nc3ccccc3s2)cc1NC(=O)COc1ccccc1C | inactive: 133%
13 | COc1ccccc1OCCn1c(NC(=O)c2ccc(Cl)cc2)nc2ccccc21 | inactive: 80%
14 | C=CCN(CC=C)C(=O)C1CCN(Cc2cc(Br)c(O)c(OC)c2)CC1 | inactive: 98%
15 | CCc1ccc(NC(=O)C2CCC(CNS(=O)(=O)c3ccc4c(c3)CC(C)N4C(C)=O)CC2)cc1 (configuration not stated) | inactive: 113%
16 | CCOC(=O)CSc1ccc2nnc(CCNS(=O)(=O)c3ccccc3)n2n1 | inactive: 87%
17 | Cc1ccc(CCNC(=O)C(NS(=O)(=O)c2ccc3c(c2)oc(=O)n3C)C(C)C)cc1 (configuration not stated) | inactive: 85%
18 | Cc1ccc(N(CC(=O)N2CCN(c3ccccc3F)CC2)S(=O)(=O)c2c(C)noc2C)cc1 | inactive: 75%
19 | O=C(Nc1cccc(C(=O)OCc2cc(=O)n3nc(C4CC4)sc3n2)c1)c1cccc(F)c1 | inactive: 63%

Row | Compound | survival
20 | O=C(NC1CCCCC1)C(c1cccs1)N(Cc1cccs1)C(=O)c1cccs1 (configuration not stated) | inactive: 116%
21 | COc1cc2c(cc1OC)C(c1ccc(F)cc1)N(c1cccc(C#N)c1)C(=O)C2 (configuration not stated) | inactive: 85%
22 | O=C(NCCc1ccccc1)c1ccc2c(c1)N(Cc1c(F)cccc1Cl)C(=O)CS2 | inactive: 84%
23 | Cn1c(=O)c(=O)n(C)c2cc(S(=O)(=O)N3CCCC3C(=O)Nc3ccccc3F)ccc21 (configuration not stated) | inactive: 71%
24 | COc1ccc(Cn2ccn(Cc3cccc(C)c3)c(=O)c2=O)cc1 | inactive: 111%
25 | COc1cc2c(cc1OC)C(COc1ccc3c(C)cc(=O)oc3c1)N(C(=O)c1cccc(C)c1)CC2 (configuration not stated) | inactive: 78%
26 | CCOc1ccc(-n2c(SCC(=O)NCC3CCCO3)nc3c([nH]c4ccccc43)c2=O)cc1 (configuration not stated) | inactive: 88%
27 | N#CC(C#N)=C(N)/C(C#N)=C\c1ccc(-c2ccccc2)o1 | inactive: 129%
28 | Cc1ccc(N(CC(=O)Nc2cccc(F)c2)S(=O)(=O)c2cccs2)cc1 | inactive: 91%
29 | COc1ccc(NC(=O)CSc2nncn3c2cc2oc(C)cc23)cc1OC | inactive: 107%
30 | CC1(C(=O)Nc2cccc(Br)c2)Cc2ccccc2C(=O)O1 (configuration not stated) | inactive: 85%
31 | CC(=O)N1CCCc2cc(S(=O)(=O)N3CCC(C(=O)NC4CCC(C)CC4)CC3)ccc21 (configuration not stated) | inactive: 65%
32 | CCc1ccc(NC(=O)CSc2nccn2-c2ccc(OC)cc2)cc1 | inactive: 153%
33 | CNC(=O)C1CCC(Cn2c(=O)c3sccc3n(Cc3ccc(F)cc3)c2=O)CC1 (configuration not stated) | inactive: 71%
34 | COCCCNC(=O)CCC(=O)N1Cc2cccc(OC)c2Oc2ncccc21 | inactive: 79%
35 | Cc1ccc2nc(N3CCN(Cc4nnnn4C4CCCC4)CC3)c(C#N)cc2c1 | inactive: 106%
36 | CCc1ccc(N2C(=O)C3C4CCCC4=C4CCCC4C3C2=O)cc1 (configuration not stated) | inactive: 116%
37 | OC1CCN(c2cc(-c3ccccc3)nc3cc(-c4cccc(Cl)c4)nn23)CC1 | inactive: 107%
38 | Nc1nc(SCC(=O)N(CCO)CCO)nc2sc3c(c12)CCCC3 | inactive: 105%

Row | Compound | survival
39 | COC(=O)c1ccccc1NC(=O)c1ncoc1-c1ccco1 | inactive: 83%
40 | CCn1c(C(=O)NCc2ccccc2C)cc2oc3ccccc3c21 | inactive: 15%
41 | Cc1nc(-c2cccc(NC(=O)Nc3ccc([N+](=O)[O-])cc3)c2)no1 | inactive: 120%
42 | Cc1ccccc1OCCSc1nc2ccc(NC(=O)c3ccccc3)cc2s1 | inactive: 85%
43 | COC(=O)Cn1nc(C)c2c(C)n(-c3ccccc3)nc2c1=O | inactive: 76%
44 | CCCN1C(=O)c2[nH]nc(-c3ccccc3O)c2C1c1ccc(OCc2ccccc2)c(OC)c1 (configuration not stated) | inactive: 64%
45 | COc1cc(C(=O)N2CCN(c3ccc(Nc4ccc(C)cc4)nn3)CC2)cc(OC)c1OC | inactive: 77%
46 | Cc1ccc(C(=O)Nc2cccc(OCc3cc(=O)n4c5c(sc4n3)CCCC5)c2)cc1 | inactive: 134%
47 | COc1cccc2c1cc1c(=O)n(CC(=O)NC3CCCCC3)nc(C)n12 | inactive: 86%
48 | COc1ccc(C2CC(=O)C(C=NCC(C)C)=C(O)C2)cc1 (configuration not stated) | inactive: 103%
49 | CCOC(=O)c1ccc(NC(=O)Cn2c(=O)cc(C)c3c(C)nn(-c4cccc(F)c4)c32)cc1 | inactive: 97%
50 | NC(=O)CSc1oc(-c2ccco2)nc1S(=O)(=O)c1ccc(Cl)cc1 | inactive: 68%
51 | Cc1ccc(NC(=O)c2cc3cc(C)ccc3n2C)cc1 | inactive: 93%
52 | Cc1nn(Cc2ccccc2Cl)c(C)c1NC(=O)c1cc(C(C)C)on1 | inactive: 66%
53 | CCC1CCCCN1C(=O)Cn1c(=O)oc2cc(S(=O)(=O)N3CCCCC3)ccc21 (configuration not stated) | inactive: 85%
54 | O=C(NCCc1ccccc1)c1sc2ncccc2c1-n1cccc1 | inactive: 75%
55 | CCCc1cnc2c(c1SCC(=O)N1CCC(C)CC1)c(=O)n(C)c(=O)n2C | inactive: 80%
56 | O=C(Nc1nc2n(n1)C(c1ccc(F)cc1)C=C(c1ccccc1)N2)c1ccc(Cl)cc1 (configuration not stated) | inactive: 52%
57 | O=C(CC(C(=O)O)C1CCCO1)Nc1ccc(F)cc1 (configuration not stated) | inactive: 88%
